{"source": "PubChem BioAssay AID1346428", "about": "(National Center for Advancing Translational Sciences (NCATS), 2018)", "note": "In all, about 48,000 compounds went through this assay and about 1,200 (2.5%) were called active. Not shown: some 2% with an inconclusive outcome.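 The calls were made as follows: active = activation of at least 60% and not above a set upper limit (about 1 call in 100 departs from these limits); inconclusive = activation of 40% to 60%, or above that upper limit; inactive = activation under 40%.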 Some of the results follow."}
{"target": "Probable G-protein coupled receptor 32 (Homo sapiens) (UniProt O75388)", "sequence (O75388 whole entry, looked up, the tested form may be a part)": "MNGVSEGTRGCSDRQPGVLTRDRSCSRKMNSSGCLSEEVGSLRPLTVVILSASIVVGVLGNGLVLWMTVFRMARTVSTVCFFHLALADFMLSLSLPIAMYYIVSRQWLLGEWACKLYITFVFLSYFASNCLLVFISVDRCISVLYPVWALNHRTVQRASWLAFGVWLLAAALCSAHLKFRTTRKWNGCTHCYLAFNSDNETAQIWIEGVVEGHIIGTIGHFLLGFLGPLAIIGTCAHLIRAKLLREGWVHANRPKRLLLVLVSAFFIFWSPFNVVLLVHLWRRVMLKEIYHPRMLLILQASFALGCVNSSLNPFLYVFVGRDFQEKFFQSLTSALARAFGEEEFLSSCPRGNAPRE", "experiment": "qHTS for Agonists of Human Resolvin D1 Receptor DRV1; also: 0% is about no effect", "settings": "CHO-K1 GPR32 beta-arrestin PathHunter luminescence, 90 min; at 76.9 µM; hits give high values; zero percent set by DMSO-only wells", "how_it_was_run": "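PathHunter enzyme-fragment complementation, CHO-K1 GPR32 stable line; 2,500 cells/well, overnight attach; cpd 90 min 37 °C 5% CO2; detection reagent 1 h RT; chemiluminescence. DMSO = EC0.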"}
{"compound": "CCN(Cc1ccccc1)C(=O)Cn1c(=O)cc(C)c2c(C)nn(-c3cccc(F)c3)c21", "activation": "inactive: 0.159%"}
{"compound": "O=C(CSc1oc(-c2ccc(F)cc2)nc1S(=O)(=O)c1ccccc1)c1ccc(Cl)cc1", "activation": "inactive: -18.8%"}
{"compound": "CC(C)c1nn2c(=O)cc(COC(=O)c3cccc(NC(=O)CCc4ccccc4)c3)nc2s1", "activation": "inactive: -14.5%"}
{"compound": "CCn1nc(C)c(CCN(C)C(=O)Nc2cc(Cl)c(OC)cc2OC)c1C", "activation": "inactive: 2.88%"}
{"compound": "CCc1ccc2occ(CC(=O)Nc3nnc(SC)s3)c2c1", "activation": "inactive: 3.72%"}
{"compound": "CC(C)c1ccc(NC(=O)C2CCC(CNS(=O)(=O)c3ccc4c(c3)CCCC(=O)N4)CC2)cc1", "note": "(centres undefined)", "activation": "inactive: 1.25%"}
{"compound": "COc1ccc(CNC(=O)CCn2c(=O)c3cccn3c3ccc(F)cc32)cc1OC", "activation": "inactive: -4.36%"}
{"compound": "CCN1C(=O)c2ccccc2S(=O)(=O)c2ccc(C(=O)NCc3ccc(C)cc3)cc21", "activation": "inactive: -17.1%"}
{"compound": "CCOc1ccc(-c2nnc(SCC(=O)NC3CCCCC3)nc2-c2ccc(OCC)c(OC)c2)cc1OC", "activation": "inactive: -14.8%"}
{"compound": "Cn1c(=O)c2c(-c3ccccc3)n(-c3cccc(C#N)c3)cc2n(C)c1=O", "activation": "inactive: -4.45%"}
{"compound": "O=C(O)c1ccc(Nc2ncnc3scc(-c4ccccc4)c23)cc1", "activation": "inactive: 2.12%"}
{"compound": "CCOC(=O)c1[nH]c(C)c(CCC(=O)N2CCN(c3ccc(Cl)cc3)CC2)c1C", "activation": "inactive: 2.43%"}
{"compound": "CCS(=O)(=O)c1nc(S(=O)(=O)c2ccc(Cl)cc2)c(NCc2ccc(Cl)cc2)s1", "activation": "inactive: 6.02%"}
{"compound": "COc1ccc(-c2ccc(=O)n(CC(=O)Nc3ccc(Br)cc3F)n2)cc1", "activation": "inactive: -37.7%"}
{"compound": "COc1ccc(Cc2c(C)nn(-c3nc(C)c(C(=O)Nc4cccc(C(C)=O)c4)s3)c2C)cc1", "activation": "inactive: -5.48%"}
{"compound": "CCc1ccc2nc(N(Cc3cccnc3)C(=O)Cc3ccccc3)sc2c1", "activation": "inactive: -34.1%"}
{"compound": "Cc1cc2c(OCC(CNC(C)(C)C)OC(=O)c3ccccc3)cccc2[nH]1", "note": "(centres undefined)", "activation": "inactive: -5.62%"}
{"compound": "CCC(C(=O)NCc1ccccc1Cl)n1c(=O)c2cccn2c2ccccc21", "note": "(centres undefined)", "activation": "inactive: -24.1%"}
{"compound": "O=C(NCc1ccccc1)c1c2c(nc3ccccc13)C(=O)N(C1CCCCC1)C2", "activation": "inactive: -11.1%"}
{"compound": "CCc1ccccc1N1C(=O)N(Cc2cc(=O)n3ccccc3n2)c2ccccc2S1(=O)=O", "activation": "inactive: -10.7%"}
{"compound": "COC(=O)c1cc(OC)c(OC)cc1NC(=O)c1ccc2c(c1)CCN2S(C)(=O)=O", "activation": "inactive: -3.65%"}
{"compound": "Cc1ccc2c(c1)N(C(=O)c1ccc(F)cc1)C(C)(C)CC2(C)c1ccccc1", "note": "(centres undefined)", "activation": "inactive: 9.22%"}
{"compound": "CCOC(=O)c1ccc(N2C(=O)c3n[nH]c(C)c3C2c2ccc(CC)cc2)cc1", "note": "(centres undefined)", "activation": "inactive: 15.3%"}
{"compound": "Oc1ccc(C2CNCc3sccc32)cc1O", "note": "(centres undefined)", "activation": "inactive: 5.61%"}
{"compound": "CCc1ccccc1NC(=O)Cn1nc(C)c2nn(-c3ccc(Cl)cc3)c(C)c2c1=O", "activation": "inactive: -17.4%"}
{"compound": "COc1cc2[nH]c(=O)n(CCCC(=O)N(C)Cc3ccccc3)c(=O)c2cc1OC", "activation": "inactive: -2.67%"}
{"compound": "Cc1ccc(-n2nc(C(=O)N(C)c3ccccc3Cl)c3c4ccccc4n(C)c3c2=O)cc1", "activation": "inactive: -1.05%"}
{"compound": "CCc1ccc(S(=O)(=O)c2cn(C)c3ccc(C)cc3c2=O)cc1", "activation": "inactive: -3.23%"}
{"compound": "CN1CCN(C(=O)C2CCCCC2)CC1", "activation": "inactive: -5.96%"}
{"compound": "Cc1ccc(NC(=O)Cn2cc(S(=O)(=O)Cc3ccccc3)c3ccccc32)cc1C", "activation": "inactive: 11.9%"}
{"compound": "COC(=O)c1cc2occc2n1Cc1nc(-c2ccc(Cl)cc2)oc1C", "activation": "inactive: -19.2%"}
{"compound": "CCOCCCNC(=O)CN1C(=O)CCn2nc(-c3cccn3C)cc21", "activation": "inactive: 27.1%"}
{"compound": "CSc1ccc(CCNC(=O)C2CCCN(S(=O)(=O)N(C)c3ccc(F)cc3)C2)cc1", "note": "(centres undefined)", "activation": "inactive: 7.01%"}
{"compound": "CN(C)S(=O)(=O)N(CC(=O)NCCSCc1ccc(Cl)cc1Cl)c1ccccc1", "activation": "inactive: 47.6%"}
{"compound": "CCOC(=O)C(Cc1ccccc1)NC(=O)Cn1nnc(-c2ccc(C)cc2)n1", "note": "(centres undefined)", "activation": "active: 61.9%"}
{"compound": "COc1ccc(NC(=O)CN2C(=O)C(c3ccccc3)=NC23CCC(C)CC3)cc1Cl", "note": "(centres undefined)", "activation": "inactive: -11.7%"}
{"compound": "N=C(N)SCCc1ccc(CCSC(=N)N)cc1", "activation": "inactive: -1.77%"}
{"compound": "COc1ccc(CN(CCN(C)C)c2ncccn2)cc1", "activation": "inactive: -4.43%"}
{"compound": "O=C1Cc2cc(S(=O)(=O)Nc3cccc(C(F)(F)F)c3)cc3c2N1CCC3", "activation": "inactive: 2.19%"}
{"compound": "Cc1cccn2c(=O)cc(COc3cccc(NC(=O)Nc4cccc(Cl)c4)c3)nc12", "activation": "inactive: -9.46%"}
{"compound": "CC(C)c1ccc(NC(=O)c2cc(S(=O)(=O)NCCc3ccccc3)ccc2F)cc1", "activation": "inactive: -4.01%"}
{"compound": "COc1ccc(C(C)C)cc1S(=O)(=O)NCCc1c(C)[nH]c2c(Cl)cccc12", "activation": "inactive: -7.1%"}
{"compound": "CCSc1ncc(Cl)c(C(=O)Nc2sc(C(C)=O)c(C)c2C(=O)OC)n1", "activation": "inactive: 1.63%"}
{"compound": "Cc1ccc2c(c1)c1c(c(=O)n(-c3cccc(Cl)c3)c(=O)n1C)n2C", "activation": "inactive: -6.27%"}
{"compound": "COc1ccc(CNC(=O)c2ccc(Sc3ccc(Cl)cc3)c(NC(C)=O)c2)c(OC)c1", "activation": "inactive: -18.4%"}
{"compound": "O=C1CN(C(=O)COc2ccc(Cl)cc2Cl)C(c2ccc(F)cc2)c2cc(F)ccc2N1", "note": "(centres undefined)", "activation": "inactive: -12.2%"}
{"compound": "COc1ccc(C(=O)c2oc3ccccc3c2NC(=O)c2nc(SC)ncc2Cl)cc1Cl", "activation": "inactive: -1.63%"}
{"compound": "NCCC(O)(P(=O)(O)O)P(=O)(O)O", "activation": "inactive: 17%"}
{"compound": "CCc1cccc(NC(=O)c2c(C)oc3ncnc(N4CCCCC4)c23)c1", "activation": "inactive: -7.62%"}
{"compound": "CCOC(=O)c1c(NC(=O)c2cc3nc(-c4ccc(OC)cc4)cc(C(F)(F)F)n3n2)sc(C)c1C", "activation": "inactive: 6.63%"}
{"compound": "CCOC(=O)c1nnn(C(CC)C(=O)Nc2c(C)cccc2C)c1C(=O)OCC", "note": "(centres undefined)", "activation": "inactive: -3.34%"}
{"compound": "CC(C)c1ccc(Nc2cc(C(=O)NCc3cccs3)c3ccccc3n2)cc1", "activation": "inactive: 21.1%"}
{"compound": "CCOC(=O)N1CCc2c(sc(NCc3cccs3)c2C(=O)Nc2cc(OC)ccc2OC)C1", "activation": "inactive: -0.112%"}
{"compound": "CCN(CC)C(=O)CSc1nnc2[nH]c(=O)cc(C)n12", "activation": "inactive: 12.7%"}
